According to the supplement of paper PMC7125110:
± gives the standard error. This sample is rich in variants without activity.

B1: glmS ribozyme (parent)
chain: AUAAAAGCGCCAGAACUACAGAAAUGUAGUUGACGAGGAGGAGGUUUAUCGAAUUUUCGGCGGAUGCCUCCAAA

What was measured:
Conditions in all cases: with glucosamine-6-phosphate
glucosamine-6-phosphate [1] = variants of: B1; test: self-cleavage kobs at 40 uM GlcN6P; higher = faster cleavage; RNA array
Procedure, shortened: (§1)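 Barcoded glmS ribozyme variants on sequenced MiSeq chips were transcribed in situ by E. coli RNA polymerase and tracked through a hybridised Cy3 probe at 37 °C. Glucosamine-6-phosphate (40 μM to 10 mM) in HEPES/KCl/Mg(OAc)2 buffer was flowed in, and tiles were imaged over ~14 h. Signals were normalised to baseline and to non-cleaving reference variants; per-tile medians were fit to one- or two-exponential decays to give kobs. kcat and KM came from weighted Michaelis–Menten fits across concentrations.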

glucosamine-6-phosphate [2] = variants of: B1; test: self-cleavage kobs at 640 uM GlcN6P; higher = faster cleavage; RNA array
Procedure, shortened: as §1

glucosamine-6-phosphate [3] = variants of: B1; test: self-cleavage kobs at 160 uM GlcN6P; higher = faster cleavage; RNA array
Procedure, shortened: as §1

glucosamine-6-phosphate [4] = variants of: B1; test: self-cleavage kobs at 10000 uM GlcN6P; higher = faster cleavage; RNA array
Procedure, shortened: as §1

glucosamine-6-phosphate [5] = variants of: B1; test: self-cleavage kobs at 2500 uM GlcN6P; higher = faster cleavage; RNA array
Procedure, shortened: as §1

| Variant | self-cleavage kobs at 40 uM GlcN6P (glucosamine-6-phosphate [1]) [s⁻¹] | self-cleavage kobs at 640 uM GlcN6P (glucosamine-6-phosphate [2]) [s⁻¹] | self-cleavage kobs at 160 uM GlcN6P (glucosamine-6-phosphate [3]) [s⁻¹] | self-cleavage kobs at 10000 uM GlcN6P (glucosamine-6-phosphate [4]) [s⁻¹] | self-cleavage kobs at 2500 uM GlcN6P (glucosamine-6-phosphate [5]) [s⁻¹] |
| --- | --- | --- | --- | --- | --- |
| G9A G44U | < 1e-05 | < 1e-05 | < 1e-05 | < 1e-05 | – |
| C8U U54G | < 1e-05 | < 1e-05 | – | < 1e-05 | < 1e-05 |
| G9C G29C C61U | < 1e-05 | – | – | – | < 1e-05 |
| C8U G38C | < 1e-05 | < 1e-05 | < 1e-05 | < 1e-05 | – |
| C8G A36U G60C | < 1e-05 | – | – | – | – |
| C8U U65C | < 1e-05 | < 1e-05 | – | – | < 1e-05 |
| G7U G38U A42G G51U C71A | < 1e-05 | – | – | < 1e-05 | – |
| C8U A33U A52G | < 1e-05 | – | – | < 1e-05 | – |
| C8U A14G A42C | < 1e-05 | – | < 1e-05 | – | < 1e-05 |
| G9C A64G | < 1e-05 | < 1e-05 | < 1e-05 | < 1e-05 | < 1e-05 |
| G7U A15C | < 1e-05 | < 1e-05 | < 1e-05 | < 1e-05 | < 1e-05 |
| G7A U46G C67U | < 1e-05 | – | – | – | – |
| G7A U49G | < 1e-05 | < 1e-05 | < 1e-05 | – | < 1e-05 |
| G9A C68A | < 1e-05 | < 1e-05 | < 1e-05 | < 1e-05 | < 1e-05 |
| C8G C11A C50G | 0.000193 ± 4.9e-05 | – | – | – | – |
| G9A A15U | < 1e-05 | < 1e-05 | < 1e-05 | – | < 1e-05 |
| G7U G51C U54A U65G C68A | < 1e-05 | – | – | – | – |
| G7U C58A C67G C70U | 9.59e-05 ± 3.4e-05 | – | – | – | – |
| G9C C16U U47A | < 1e-05 | – | – | < 1e-05 | – |
| G7U G35U U46A C67U U69C | < 1e-05 | < 1e-05 | < 1e-05 | – | < 1e-05 |
| C8U A12G A48U A53C G63A | < 1e-05 | – | – | – | – |
| C8G G41A | < 1e-05 | – | < 1e-05 | < 1e-05 | < 1e-05 |
| G7U C10A G60U | < 1e-05 | – | < 1e-05 | – | < 1e-05 |

| Variant | self-cleavage kobs at 40 uM GlcN6P (glucosamine-6-phosphate [1]) [s⁻¹] | self-cleavage kobs at 640 uM GlcN6P (glucosamine-6-phosphate [2]) [s⁻¹] | self-cleavage kobs at 160 uM GlcN6P (glucosamine-6-phosphate [3]) [s⁻¹] | self-cleavage kobs at 10000 uM GlcN6P (glucosamine-6-phosphate [4]) [s⁻¹] | self-cleavage kobs at 2500 uM GlcN6P (glucosamine-6-phosphate [5]) [s⁻¹] |
| --- | --- | --- | --- | --- | --- |
| G9A C11U C34U | < 1e-05 | – | – | – | – |
| G9A G59C | < 1e-05 | – | < 1e-05 | < 1e-05 | < 1e-05 |
| G9A G32U A48U | < 1e-05 | – | – | < 1e-05 | – |
| C8G C10U A48U A64U | < 1e-05 | – | – | < 1e-05 | – |
| G9A U30C | < 1e-05 | < 1e-05 | < 1e-05 | – | < 1e-05 |
| C8G A15G | < 1e-05 | < 1e-05 | < 1e-05 | < 1e-05 | < 1e-05 |
| G9C C68U | < 1e-05 | < 1e-05 | – | < 1e-05 | < 1e-05 |
| G7U G32A C58U | < 1e-05 | – | – | < 1e-05 | < 1e-05 |
| C8G A42G C68G | < 1e-05 | – | – | – | – |
| G7U C16U A33G | < 1e-05 | – | – | < 1e-05 | – |
| G9A A64G | < 1e-05 | < 1e-05 | – | – | < 1e-05 |
| C8A A42C C67U | < 1e-05 | – | – | – | < 1e-05 |
| G9C A15U G43A U46A C67G | < 1e-05 | – | – | < 1e-05 | – |
| G9A A14C A48C | < 1e-05 | – | – | – | – |
| G9A G29A | < 1e-05 | – | < 1e-05 | < 1e-05 | < 1e-05 |
| G9C C10G G62U | < 1e-05 | – | – | < 1e-05 | – |
| C8A G38U G66U | < 1e-05 | – | – | – | – |
| G9A U56C | < 1e-05 | < 1e-05 | < 1e-05 | – | < 1e-05 |
| C8U A53U | < 1e-05 | < 1e-05 | – | < 1e-05 | – |
| C8A G66C | < 1e-05 | – | – | – | < 1e-05 |
| C8A G29U C50U G51U C68G | 6.11e-05 ± 2.7e-05 | – | – | – | – |
| G7U A33C G41A A48U | < 1e-05 | – | – | < 1e-05 | – |
| G7C G62U | < 1e-05 | – | – | – | – |

| Variant | self-cleavage kobs at 40 uM GlcN6P (glucosamine-6-phosphate [1]) [s⁻¹] | self-cleavage kobs at 640 uM GlcN6P (glucosamine-6-phosphate [2]) [s⁻¹] | self-cleavage kobs at 160 uM GlcN6P (glucosamine-6-phosphate [3]) [s⁻¹] | self-cleavage kobs at 10000 uM GlcN6P (glucosamine-6-phosphate [4]) [s⁻¹] | self-cleavage kobs at 2500 uM GlcN6P (glucosamine-6-phosphate [5]) [s⁻¹] |
| --- | --- | --- | --- | --- | --- |
| C8U A33C | < 1e-05 | < 1e-05 | < 1e-05 | < 1e-05 | < 1e-05 |
| C8G C70G | < 1e-05 | – | < 1e-05 | – | < 1e-05 |
| G7C G29U G32U A64C | < 1e-05 | – | – | – | – |
| G9C A48G U49C C70G | < 1e-05 | – | – | < 1e-05 | – |
| G7U A14C | < 1e-05 | < 1e-05 | < 1e-05 | < 1e-05 | < 1e-05 |
| C8A A33G | < 1e-05 | – | < 1e-05 | < 1e-05 | < 1e-05 |
| G7C G32U C61A | < 1e-05 | – | – | < 1e-05 | < 1e-05 |
| C8G U45G C70G | < 1e-05 | – | – | < 1e-05 | – |
| G7A G35C | < 1e-05 | < 1e-05 | – | < 1e-05 | < 1e-05 |
| G7C C10U U46A U55A C71A | < 1e-05 | – | – | – | – |
| G9A C10A C61A | < 1e-05 | – | – | – | – |
| G9A G38A | < 1e-05 | – | – | < 1e-05 | – |
| G9C A12U | < 1e-05 | < 1e-05 | – | – | – |
| G9C C67A | < 1e-05 | < 1e-05 | < 1e-05 | < 1e-05 | < 1e-05 |
| G9C C67U | < 1e-05 | < 1e-05 | < 1e-05 | < 1e-05 | < 1e-05 |
| G7U U47A | < 1e-05 | < 1e-05 | < 1e-05 | – | < 1e-05 |
| G9C C11U U31C A36G G38A C50G U69G C70G | 0.00075 ± 0.00022 | – | – | 0.000818 ± 0.00021 | – |
| G7C U54C | < 1e-05 | < 1e-05 | < 1e-05 | < 1e-05 | < 1e-05 |
| G7A U45G | < 1e-05 | < 1e-05 | – | < 1e-05 | < 1e-05 |
| G7A U45A | < 1e-05 | – | < 1e-05 | – | – |
| G7A C16G U46A U56C | < 1e-05 | – | – | < 1e-05 | – |
| G9A A33G | < 1e-05 | – | < 1e-05 | – | < 1e-05 |
| G9A G62U | < 1e-05 | – | < 1e-05 | – | < 1e-05 |

| Variant | self-cleavage kobs at 40 uM GlcN6P (glucosamine-6-phosphate [1]) [s⁻¹] | self-cleavage kobs at 640 uM GlcN6P (glucosamine-6-phosphate [2]) [s⁻¹] | self-cleavage kobs at 160 uM GlcN6P (glucosamine-6-phosphate [3]) [s⁻¹] | self-cleavage kobs at 10000 uM GlcN6P (glucosamine-6-phosphate [4]) [s⁻¹] | self-cleavage kobs at 2500 uM GlcN6P (glucosamine-6-phosphate [5]) [s⁻¹] |
| --- | --- | --- | --- | --- | --- |
| G7C C10U | < 1e-05 | – | – | < 1e-05 | – |
| G7U U65A | < 1e-05 | < 1e-05 | < 1e-05 | < 1e-05 | < 1e-05 |
| G7C | < 1e-05 | < 1e-05 | < 1e-05 | < 1e-05 | < 1e-05 |
| G7U | < 1e-05 | < 1e-05 | < 1e-05 | < 1e-05 | < 1e-05 |
| C8U A33U A36G U49G U65G C71G | < 1e-05 | – | – | – | – |
| C8U G62U U69G | 0.00021 ± 7.2e-05 | – | – | 0.000358 ± 0.00015 | – |
| C8G G29C G60A C71A | < 1e-05 | < 1e-05 | < 1e-05 | – | < 1e-05 |
| C8G U56C | < 1e-05 | < 1e-05 | < 1e-05 | < 1e-05 | < 1e-05 |
| G9A G40A A48G | < 1e-05 | – | – | – | – |
| C8A G35A | < 1e-05 | < 1e-05 | < 1e-05 | < 1e-05 | < 1e-05 |
| C8U G44U | < 1e-05 | < 1e-05 | < 1e-05 | < 1e-05 | < 1e-05 |
| C8U G44A | < 1e-05 | < 1e-05 | < 1e-05 | – | < 1e-05 |
| C8U G37A | < 1e-05 | – | – | < 1e-05 | – |
| C8A G29C G37U C61A G62C | < 1e-05 | – | – | < 1e-05 | – |
| G9A C10U G38U U45A | < 1e-05 | – | – | – | – |
| C8A C34A G41C U54G C70U | < 1e-05 | – | – | < 1e-05 | – |
| G7A C16U G29C G32C A53U U54A | < 1e-05 | – | – | < 1e-05 | – |
| G9A G43U | < 1e-05 | < 1e-05 | < 1e-05 | – | < 1e-05 |
| C8U G41A G59C | < 1e-05 | – | – | – | – |
| G9A G32C A52U | < 1e-05 | – | – | – | – |
| C8G A14G U57A | < 1e-05 | – | – | < 1e-05 | < 1e-05 |
| G7C A15U | < 1e-05 | – | < 1e-05 | < 1e-05 | – |
